# Laboratory results: the supplement of paper PMC7335073
# Over roughly 4,100 sequences, “relative CpG methylation activity (normalised to average over all NNNCGNNN flanks)” has its median near 0.87; the highest 2% begin near 2.4. Some of the results follow.
# Molecular target: DNMT3A catalytic domain (mouse) (UniProt O88508)
# Assay: relative CpG methylation activity (normalised to average over all NNNCGNNN flanks) (relative (1 = mean)); higher = more methylation of the central CpG
# Conditions: system: in vitro, murine catalytic domain; CpG state: hemimethylated substrate pool; residues: 608-908
# Summary of the method: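 Pooled dsDNA substrates with a central CpG inside 10 random flanking nucleotides were methylated by murine DNMT3A or DNMT3B catalytic domain with 0.8 mM S-adenosyl-L-methionine in HEPES pH 7.5 buffer for 60 min at 37 °C. The DNA then went through proteinase K, BsaI-HFv2 digestion, hairpin ligation, bisulfite conversion and two-step PCR before Illumina sequencing. Relative methylation activity is the average methylation of each context with three flanking bases per side, divided by the mean over all contexts. Each experiment had two independent repeats.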
row,Sequence,relative CpG methylation activity
1,GTGCGGTT,0.635
2,GTACGCTA,1.98
3,AGCCGCTT,1.5
4,CTGCGAAG,0.897
5,AGCCGAGA,0.788
6,GAACGGAG,0.444
7,AGTCGCCT,1.08
8,CTTCGGGT,0.82
9,GGCCGATA,0.552
10,TGCCGCTC,1.84
11,ATCCGCGT,1.34
12,TTGCGTCA,1.97
13,CCACGAGG,0.518
14,AAACGGCG,0.479
15,TTACGACT,2.1
16,GTTCGGTT,0.726
17,GAGCGTGC,0.417
18,CACCGAAT,0.813
19,AGACGCAA,0.717
20,GTCCGGGC,1.59
21,CTCCGAGC,2.24
22,CATCGGGA,0.259
23,GTCCGACA,2.02
24,GGGCGTTA,0.441
25,CAGCGAAC,0.67

row,Sequence,relative CpG methylation activity
1,GTCCGTGC,0.722
2,TTGCGCAC,2.11
3,TGGCGCAG,0.34
4,CGCCGCCT,1.48
5,CATCGCCG,1.36
6,GTGCGTCT,1.71
7,TCGCGGAA,0.551
8,TTCCGAAC,2.22
9,TTGCGCTA,1.89
10,ATCCGGCG,1.45
11,ATACGGAT,1.53
12,CGACGCGC,0.694
13,AACCGGGG,0.513
14,TGACGTGA,0.475
15,GGGCGTGC,0.51
16,TGACGGAC,0.828
17,TATCGATC,0.934
18,TCTCGAGG,0.357
19,ACGCGTCG,1.45
20,AAACGACA,0.765
21,GCTCGGTA,0.795
22,TACCGCTT,1.23
23,GGCCGTCG,0.932
24,TGTCGGTA,0.389
25,CCTCGATA,0.911

row,Sequence,relative CpG methylation activity
1,AACCGTTT,0.905
2,CTTCGAAT,0.595
3,GCTCGTTC,1.14
4,CCCCGATT,0.939
5,CAGCGTCT,0.766
6,TTGCGGAC,1.29
7,GCTCGCTC,1.7
8,CGCCGCGA,0.565
9,AACCGACT,0.927
10,GAACGTGC,0.464
11,GGTCGAGC,0.685
12,CGACGTAC,0.566
13,GTGCGAGT,1.39
14,AACCGGTA,0.714
15,TCTCGGAG,0.328
16,CATCGGCC,1.1
17,GGGCGGAA,0.779
18,CTGCGCCC,2.19
19,GCACGTGG,0.388
20,ATTCGTTT,1.14
21,ACTCGGCC,1.4
22,CCACGAAA,1.39
23,ACGCGTTC,1.19
24,GAGCGATG,0.318
25,AAGCGATA,0.458

row,Sequence,relative CpG methylation activity
1,ATACGCAC,2.34
2,TAGCGCCT,1.02
3,CCACGACC,1.68
4,TGGCGAAT,0.403
5,AAGCGCCA,1.04
6,CTTCGATT,1.04
7,TTACGTGG,0.437
8,ACGCGCGT,1.07
9,ACTCGCAG,0.671
10,AGGCGATG,0.342
11,CCACGGTT,1.05
12,GCTCGGCA,1.1
13,AATCGTTT,0.27
14,ATCCGGAC,1.36
15,TGTCGGGT,0.615
16,TTCCGCAC,2.18
17,GATCGAAA,0.43
18,CTCCGCTA,2.27
19,GTACGAAT,1.36
20,GCCCGGGT,0.974
21,GCCCGATG,0.508
22,TTACGAAC,2.17
23,TGGCGTAG,0.38
24,CATCGCGC,0.69
25,CTGCGTCT,1.56

row,Sequence,relative CpG methylation activity
1,TTACGTTG,1.34
2,CAACGTAG,0.467
3,ATACGACG,1.73
4,TTCCGTGA,1.14
5,GTCCGAAA,1.72
6,GAACGGAA,0.566
7,ATTCGCAC,1.2
8,GTTCGAAC,1.37
9,GGTCGTAT,0.455
10,AGTCGAAG,0.145
11,CTACGGGA,1.38
12,ACGCGCCT,2.02
13,GTGCGGGA,1.07
14,AAGCGGTG,0.221
15,TATCGTGG,0.0549
16,GTACGTGT,0.804
17,GCCCGTGT,0.304
18,GCCCGTGA,0.592
19,GTCCGAGA,1.64
20,ACGCGCAG,0.605
21,CTGCGTGT,0.598
22,GCACGTCA,1.86
23,AGCCGGCA,0.812
24,ACGCGTGC,0.46
25,AAGCGCCT,1

row,Sequence,relative CpG methylation activity
1,AACCGCGG,0.225
2,GAACGTGT,0.152
3,TAACGCCT,1.2
4,ATTCGCAG,0.559
5,GGCCGGGG,0.156
6,GGCCGGAC,0.667
7,GTGCGCGT,1.48
8,CGTCGCCA,1.32
9,CCGCGGTT,0.865
10,ACACGTTC,2.03
11,ACTCGCCC,1.86
12,TCACGGCC,1.59
13,ATCCGATA,1.7
14,ATGCGCGA,1.17
15,TAACGGCC,1.2
16,CCTCGGAT,0.744
17,CATCGGTG,0.467
18,GGTCGGCG,0.341
19,GGTCGTAA,0.82
20,CGTCGACT,0.696
21,TGGCGCAT,0.413
22,GGCCGCGT,0.263
23,CGGCGACC,0.275
24,TCACGACC,1.45
25,ACGCGCTC,1.83

row,Sequence,relative CpG methylation activity
1,CGACGGGT,0.422
2,AAGCGCGT,0.408
3,GGCCGACG,1.06
4,ATTCGGAT,0.53
5,CATCGTGA,0.446
6,AATCGGTT,0.205
7,TAGCGACC,0.612
8,AGACGCTA,0.996
9,ACCCGCTC,1.88
10,TGGCGGTT,0.673
11,CACCGCTG,0.798
12,GCACGGCT,1.48
13,CCCCGATG,0.707
14,ATGCGGCG,0.6
15,AATCGCCC,1.37
16,CCGCGACA,1.1
17,GCACGAAG,0.983
18,TGTCGACC,0.76
19,AGTCGCCG,1.17
20,GGCCGTGG,0.192
21,GGACGGCC,1.01
22,CACCGGAG,0.153
23,AAACGGTG,0.476
24,TCTCGCAT,1.22
25,ATTCGCGG,0.183

row,Sequence,relative CpG methylation activity
1,GCGCGGCT,1.25
2,CATCGTTC,0.912
3,AGCCGCAC,0.983
4,TTTCGGCG,0.857
5,TAGCGTAA,0.606
6,TTTCGGGA,0.882
7,GAACGTAC,0.722
8,TTCCGACA,2.36
9,CAGCGACT,0.576
10,CCACGGCC,1.76
11,GAGCGTTG,0.26
12,GGACGTGA,0.354
13,GGCCGATG,0.302
14,GTCCGGTC,1.96
15,TTACGTAT,1.48
16,TAGCGTTT,0.45
17,CAGCGAGA,0.503
18,CCACGTAC,1.45
19,TCTCGGCG,0.688
20,GAACGGAC,1.07
21,CTCCGGTG,1.08
22,CTACGCAC,2.15
23,AGCCGGGG,0.593
24,GTTCGCAG,0.727
25,GAGCGGGC,0.517

row,Sequence,relative CpG methylation activity
1,TACCGGAA,0.592
2,TCACGTGA,0.802
3,GTTCGTAT,0.505
4,CGCCGAAT,0.61
5,TTTCGTTA,1.28
6,TGCCGCAC,1.07
7,CCACGTCG,1.7
8,TCGCGATG,0.614
9,AGGCGAGA,0.545
10,CTACGATT,1.89
11,GCTCGTCC,1.85
12,GGGCGTCT,1.3
13,ATACGGCT,1.74
14,ATCCGGCC,1.49
15,CAACGCCA,1.14
16,ATACGAGC,2.39
17,AGCCGCCG,0.986
18,TATCGCAT,0.632
19,AGCCGAGG,0.227
20,CGACGCTA,0.737
21,CGCCGGTT,0.367
22,TCTCGAGA,0.833
23,GTACGAGA,1.45
24,CACCGATT,0.784
25,ATACGTGT,0.724

row,Sequence,relative CpG methylation activity
1,CCTCGAGT,0.92
2,CTGCGTGA,0.75
3,GGGCGGCG,0.625
4,GGACGATC,0.878
5,TAACGGGC,1.18
6,TCTCGGTG,0.645
7,AAGCGGTA,0.377
8,ACGCGAGG,0.63
9,CAGCGTGA,0.0962
10,ATTCGACG,0.74
11,TTACGTTA,2.55
12,GAACGAGT,0.576
13,AGTCGACT,0.424
14,GCGCGCGA,1.04
15,ACTCGTCC,1.54
16,GATCGTGC,0.14
17,CTTCGAAG,0.625
18,TGACGACA,1.01
19,CCCCGGCC,1.55
20,AGGCGCGT,0.449
21,GTACGATC,1.9
22,CTACGTAT,1.54
23,GCGCGATT,0.714
24,ATTCGCCT,2
25,TCTCGTCC,1.43

row,Sequence,relative CpG methylation activity
1,GAGCGTCC,1.08
2,CAACGCCC,1.52
3,GGGCGCAG,0.347
4,CTCCGTGC,0.671
5,TATCGTTT,0.739
6,TCGCGGTT,0.563
7,TGCCGGGC,0.764
8,TGCCGCTT,1.45
9,CCACGCAC,1.81
10,AACCGCAG,0.436
11,AACCGAGG,0.346
12,CCCCGCCG,1.72
13,ACTCGACC,1.26
14,TATCGGTG,0.17
15,AATCGCGA,0.352
16,AGACGGCA,0.868
17,AAGCGGGC,0.635
18,CCACGGGT,1.19
19,TGTCGTAA,0.629
20,TACCGAAT,0.769
21,TTACGCCT,2.38
22,GCGCGTTG,0.402
23,CATCGGGC,0.363
24,CGCCGACG,0.849
25,CATCGATA,0.563

row,Sequence,relative CpG methylation activity
1,TGACGTTC,0.739
2,TTACGGAG,1
3,CGACGGGG,0.274
4,TCTCGGTA,0.739
5,ACTCGCAT,0.822
6,TGCCGTGG,0.0833
7,GTGCGATT,0.955
8,TGACGTGG,0.122
9,AAACGCTG,0.861
10,TCACGTTG,0.702
11,GCTCGGAT,0.804
12,CGTCGTTT,0.632
13,GGACGGTT,0.486
14,AGTCGGTC,0.658
15,CTTCGAGA,1.22
16,GCGCGCGT,1.08
17,GTGCGCGA,1.31
18,TATCGGGG,0.29
19,CTTCGGAT,0.781
20,AAACGTGC,0.409
21,ACTCGCGT,0.867
22,ATCCGACC,1.88
23,TACCGAAC,1.38
24,TGTCGTTT,0.652
25,TTTCGGAC,1.23

row,Sequence,relative CpG methylation activity
1,CACCGGGC,0.89
2,TGGCGACT,0.737
3,AGCCGGAG,0.227
4,TCACGTAT,1.25
5,ACACGCGT,1.25
6,CGGCGCTT,1.54
7,CAACGTTT,0.628
8,ATCCGAGA,1.6
9,TAGCGCTT,0.818
10,TAACGTTA,0.654
11,TCGCGCGA,0.745
12,ACCCGGTT,0.844
13,GCCCGTAG,0.719
14,GGGCGACA,0.645
15,GCGCGAGA,0.455
16,CGGCGCAA,0.604
17,GAGCGAAG,0.348
18,CGACGATC,0.899
19,ATTCGAGG,0.743
20,GAGCGTAG,0.34
21,GCGCGGGC,0.915
22,AGCCGTCA,1.05
23,GGTCGCAG,0.167
24,CCACGAGC,2.13
25,GATCGGGC,0.225

row,Sequence,relative CpG methylation activity
1,TCGCGGCG,0.676
2,ACGCGCGC,1.12
3,ATCCGAAT,1.06
4,GCACGAGG,0.755
5,GGGCGATG,0.662
6,GCTCGTAC,0.86
7,CGTCGTCA,0.704
8,CTGCGAAC,1.7
9,GCACGTAA,1.66
10,ATCCGCAG,1.01
11,TAACGTGT,0.503
12,TAGCGCGG,0.0538
13,TGACGCGC,0.749
14,CCCCGCAC,1.55
15,GACCGTGG,0.101
16,GATCGTGA,0.286
17,CCACGTCA,1.71
18,GGGCGAAG,0.523
19,AAACGCCT,1.45
